PubChem BioAssay AID360 (National Center for Advancing Translational Sciences (NCATS), 2006)
Among all 48,000 compounds or so, about 550 (1.1%) were called active. Another 4% or so got no clear call; they are omitted. Cut-off read from the data, not from the text of the source: active = potency below about 15 µM; inconclusive = mostly about 16 µM to 33 µM; inactive = weaker than that. This is one part of the list.

target: Lysosomal acid glucosylceramidase (Homo sapiens) (UniProt P04062); assay: Glucocerebrosidase; details: purified enzyme, resorufin glucoside fluorescence (screen aimed at inhibitors), 20 min;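 note: the screen sought inhibitors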
Sequence of UniProt P04062 (P04062 whole entry, looked up): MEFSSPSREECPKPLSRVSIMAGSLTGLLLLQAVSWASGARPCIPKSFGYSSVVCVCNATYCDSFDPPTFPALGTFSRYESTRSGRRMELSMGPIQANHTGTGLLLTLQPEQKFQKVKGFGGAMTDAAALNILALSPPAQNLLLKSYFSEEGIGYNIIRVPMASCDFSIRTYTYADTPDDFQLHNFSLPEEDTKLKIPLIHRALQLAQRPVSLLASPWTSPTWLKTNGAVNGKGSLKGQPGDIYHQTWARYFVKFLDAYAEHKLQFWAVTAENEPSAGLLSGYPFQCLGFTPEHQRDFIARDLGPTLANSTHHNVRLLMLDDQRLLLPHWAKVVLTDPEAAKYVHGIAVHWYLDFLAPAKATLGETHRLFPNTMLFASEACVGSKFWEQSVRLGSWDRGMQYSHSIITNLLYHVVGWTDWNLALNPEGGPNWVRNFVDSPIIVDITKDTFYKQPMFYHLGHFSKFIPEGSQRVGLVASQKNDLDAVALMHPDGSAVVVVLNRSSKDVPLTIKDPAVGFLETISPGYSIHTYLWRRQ
How it was run: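 Compounds titrated against 0.2 nM normal enzyme, 30 uM resorufin beta-D-glucopyranoside substrate, citrate/phosphate buffer with taurocholate and tween-20, pH 5.9. Reaction ran 20 min at room temperature; fluorescence (Ex 548/Em 600) gave AC50.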
Potency is the fitted concentration of half-maximal effect.

Potency, inactive:
CCOC(=O)COc1ccc(S(=O)(=O)N2CCN(C(=O)OCC)CC2)cc1 > 76.9 µM
COc1cccc2c(=O)c3c(cnn3C)n(C)c12 > 76.9 µM
CCn1c(=O)cc(OCC(=O)Nc2cc(C)ccn2)c2ccccc21 > 76.9 µM
Cc1cccc(C)c1OCCCCc1c(C)n[nH]c1C > 76.9 µM
Cc1cc(=O)n2[nH]c(-c3ccccc3)cc2n1 > 76.9 µM
O=C(NCC1CCCO1)c1c(O)c2ccccc2[nH]c1=O (centres undefined) > 76.9 µM
Cn1c(=O)c2[nH]c(CNCc3ccccc3Cl)nc2n(C)c1=O > 76.9 µM
CCCc1n[nH]c(=O)[nH]1 > 76.9 µM
CC1CCCN(C(=O)Nc2cccc(NC(=O)N3CCCC(C)C3C)c2)C1C (centres undefined) > 76.9 µM
O=C(Nc1ccccc1)c1cccc(-c2nnc(-c3ccccc3)o2)c1 > 76.9 µM
CC(=O)N1CCN2C(=O)C1CCCC(=O)c1cc(C3CCCCC3)ccc12 (centres undefined) > 76.9 µM
CCn1c(SCC(=O)c2cc(OC)ccc2OC)nnc1C(C)C > 76.9 µM
CN1CCN(C(=O)CC23CC4CC(CC(C4)C2)C3)CC1 > 76.9 µM
OCc1nc(CO)n(Cc2ccccc2)n1 > 76.9 µM
O=C(O)Cc1ccc2[nH]c3ccc(CC(=O)O)cc3c2c1 > 76.9 µM
O=c1c2[nH]c3cccc(Cl)c3c2ncn1Cc1ccncc1 > 76.9 µM
Cc1cc(C)n2nc(SCC(=O)N(C)Cc3ccccc3)nc2n1 > 76.9 µM
O=C(CCCC(=O)N1CCN(c2ccccc2F)CC1)N1CCN(c2ccccc2F)CC1 > 76.9 µM
Cn1c(NCc2ccco2)nc2c1c(=O)n(Cc1ccc(Cl)cc1Cl)c(=O)n2C > 76.9 µM
CC(C)(C)n1nnnc1C(c1ccncc1)N1CCCCCC1 (centres undefined) > 76.9 µM
O=C1c2cccnc2C(Nc2ccc(S(=O)(=O)N3CCCCC3)cc2)N1Cc1ccccc1 (centres undefined) > 76.9 µM
COc1ccccc1NC(=O)CN1CCN(C2c3ccccc3-c3ccccc32)CC1 > 76.9 µM
COC(=O)C1=CN(CC2CCCO2)C=C(C(=O)OC)C1c1cc(OC)c(OC)c(OC)c1 (centres undefined) > 76.9 µM
O=C(NCc1ccc(F)cc1)C1CCN(S(=O)(=O)N2CCCCC2)CC1 > 76.9 µM
CCOC(=O)C1CCCN(C(=O)c2cn(CC)c3ccc(S(=O)(=O)N4CCCC4)cc3c2=O)C1 (centres undefined) > 76.9 µM
CCOc1ccccc1NC(=O)Cn1c(=O)n(CCC(=O)NC2CCCC2)c(=O)c2ccccc21 > 76.9 µM
Cc1ccc(-c2cc(-c3ccc(F)cc3)nc(N)c2C#N)o1 > 76.9 µM
O=C(CNC(=O)c1ccc(Cl)cc1Cl)NCC(=O)Nc1ccccc1N1CCOCC1 > 76.9 µM
COc1ccc(CC(=O)OCC(=O)Nc2ncc(Cl)cc2Cl)cc1 > 76.9 µM
O=C(OCC(=O)N1CCOCC1)C(c1ccccc1)c1ccccc1 > 76.9 µM
CCS(=O)(=O)N1CCCC(C(=O)NC2CCCCC2)C1 (centres undefined) > 76.9 µM
CCOC(=O)CN(C(=O)CSc1nnc(-c2ccc(OC)c(OC)c2)o1)c1ccccc1 > 76.9 µM
Cc1cc2ccccc2c(=O)n1CC(=O)NCC1COc2ccccc2O1 (centres undefined) > 76.9 µM
Cc1[nH]nc2c1C(c1ccc(OC(=O)c3ccco3)cc1)C(C#N)=C(N)O2 (centres undefined) > 76.9 µM
CCCCCCn1c(N2CCC(C(N)=O)CC2)nc2c1c(=O)[nH]c(=O)n2C > 76.9 µM
Cc1ccccc1-n1c(SCC(=O)N2CCCC2)nnc1-c1ccccn1 > 76.9 µM
COC(=O)C1(c2ccccc2)NC(c2cccs2)C2C(=O)N(C)C(=O)C21 (centres undefined) > 76.9 µM
Cc1cc(=O)[nH]c(SCC(=O)Nc2ccc(S(=O)(=O)N3CCCCC3)cc2)n1 > 76.9 µM
Cc1c(N=C2SCC(=O)N2c2c(C)n(C)n(-c3ccccc3)c2=O)c(=O)n(-c2ccccc2)n1C > 76.9 µM
COc1ccc(NC(=O)CSc2ccccn2)cc1OC > 76.9 µM
CCOC(=O)Cc1cn2c(=O)cc(CSCC(=O)Nc3ccc(C)c(C)c3)nc2s1 > 76.9 µM
CCOC(=O)N1CCC(NC(=O)c2ccc(OC)c(CN3CC(=O)N4CCCC4C3=O)c2)CC1 (centres undefined) > 76.9 µM
CCOc1ccccc1-n1c(SCC(=O)NC2CCCC2)nnc1-c1ccoc1C > 76.9 µM
COc1ccc(-c2nnc(SCC(=O)c3[nH]c(C)c(C(C)=O)c3C)o2)cc1 > 76.9 µM
CN1CCN(C(=O)c2ccccc2NC(=O)CCN2C(=O)c3ccccc3C2=O)CC1 > 76.9 µM
COc1cccc(NS(=O)(=O)c2ccc(S(=O)(=O)N3CCOCC3)cc2)c1 > 76.9 µM
O=C(NCCOc1nc(N2CCCCC2)nc(N2CCOCC2)n1)Nc1ccccc1 > 76.9 µM
O=C(Cc1ccccc1)NCCCN1CCN(CCCNC(=O)Cc2ccccc2)CC1 > 76.9 µM
Nc1cc(CN2C(=O)c3ccccc3C2=O)cc(Cl)c1O > 76.9 µM
COc1ccc(N2CCN(CCCNC(=O)CN3CCN(Cc4ccccc4C)C3=O)CC2)cc1 > 76.9 µM
COc1ccc(-c2noc(CCC(=O)N3CCN(c4cc(C)ccc4C)CC3)n2)cc1
COc1cccc(-c2cn3nc4c(nc3n2)CCCC4)c1 > 76.9 µM
COC(=O)c1ccccc1NC(=O)NCc1cccnc1 > 76.9 µM
NC(=O)COC(=O)c1ccc(Oc2ccccc2)cc1 > 76.9 µM
Cc1sc2c(c1C)CN(Cc1ccco1)CN2C(=O)c1ccccc1 > 76.9 µM
Cn1c(=O)cc(OCCCC(=O)NCCCN2CCN(Cc3ccccc3)CC2)c2ccccc21 > 76.9 µM
CCOC(=O)c1cc2occc2n1CC(=O)NC1CCC(C)CC1 (centres undefined) > 76.9 µM
Cc1ccc(O)c(NC(=O)CCCC(=O)O)c1 > 76.9 µM
CC(NC(=O)CC1Nc2ccccc2NC1=O)c1ccccc1 (centres undefined) > 76.9 µM
C=CCn1c(SCC(=O)NCC2CCCO2)nc2scc(-c3ccco3)c2c1=O (centres undefined) > 76.9 µM
Cc1nc(CNS(=O)(=O)c2ccc3c(c2)OCCO3)cs1 > 76.9 µM
NC1=NC(=O)CC(C(=O)NCCc2ccccc2)S1 (centres undefined) > 76.9 µM
CC(C)(C)OC(=O)N1CCC(c2c(C(=O)O)cnn2-c2ccccc2Cl)CC1 > 76.9 µM
O=C(CSc1nnc(-c2cccnc2)n1Cc1ccccc1)N1CCOCC1 > 76.9 µM
CC(=O)Oc1ccc2oc(=O)c3c(c2c1)CCCN3C(=O)CN1CCN(c2ncccn2)CC1 > 76.9 µM
CC(=O)c1cccc(NC(=O)NCc2ccco2)c1 > 76.9 µM
COCCN(CC(=O)NCc1ccc(F)cc1)C(=O)CCC(=O)Nc1ccccn1 > 76.9 µM
CCOC(=O)C1[C@H]2C(=O)N(C(C)c3ccc(OC)cc3)C[C@]23C=C[C@H]1O3 (some centres undefined) > 76.9 µM
CCc1cc2ccccc2nc1SCC(=O)Nc1cc(C)on1 > 76.9 µM
CCc1nnc(NC(=O)CSc2nnc(-c3ccccc3O)n2-c2ccc(C)cc2C)s1
Cc1cc(S(=O)(=O)NC2CCCCC2)ccc1OCC(=O)NCc1ccccn1 > 76.9 µM
CN1CCN(/C=N/c2c(C#N)cnn2C)CC1 > 76.9 µM
Cc1cc(Nc2ccc3c(c2)OCCO3)n2ncnc2n1 > 76.9 µM
CCOC(=O)c1[nH]c(C)c(C(=O)N2CCN(c3cccc(Cl)c3)CC2)c1C > 76.9 µM
CCCc1cc(=O)n2[nH]c(NCc3cccs3)nc2n1 > 76.9 µM
CCCCNC(=O)NCC(=O)Nc1ccc(F)c(F)c1 > 76.9 µM
O=C1CCCc2c1nn(-c1ccccc1)[n+]2[O-] > 76.9 µM
Cc1ccc(S(=O)(=O)NCC(=O)N(CC(=O)NCC2CCCO2)C2CCCC2)cc1 (centres undefined) > 76.9 µM
CS(=O)(=O)c1ccc(Cl)c(C(=O)O)c1 > 76.9 µM
O=C(Nc1cccc(S(=O)(=O)C(F)F)c1)c1ccc(Cl)c(S(=O)(=O)N2CCOCC2)c1 > 76.9 µM
CCC1(C(=O)OC)NC(c2ccco2)C2C(=O)N(c3ccccc3)C(=O)C21 (centres undefined) > 76.9 µM
Cc1nnc(SCC(=O)Nc2ncc3c(n2)CCCC3=O)s1 > 76.9 µM
O=C(Cc1ccc(Br)cc1)N1CCCCCC1 > 76.9 µM
C=CCn1c(SCC(=O)c2cc(C)n(CC3CCCO3)c2C)nnc1-c1ccccc1 (centres undefined) > 76.9 µM
CC1(c2ccncc2)Nc2ccccc2-c2nc3ccccc3n21 (centres undefined) > 76.9 µM
COc1ccccc1NS(=O)(=O)c1ccc(OC)c(OC)c1 > 76.9 µM
COc1cc(CNCCO)ccc1OCC(=O)Nc1ccc(Br)cc1 > 76.9 µM
O=C(c1ccccc1)N1CCN(C(=O)N2CCCCC2)CC1 > 76.9 µM
O=C(CN(C(=O)C1COc2ccccc2O1)c1ccccc1)NCC1CCCO1 (centres undefined) > 76.9 µM
